Test results from the supplement of paper PMC9151546.
Single values are uncertain, as repeats are few or missing.

Legend:
CHO-K1 [1] = test: hypodiploid nuclei frequency (% of nucleated events); higher = more hypodiploid events (aneugenic)
Method: (§1)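 Flow-cytometric in vitro micronucleus assay (Litron MicroFlow) in CHO-K1 cells in 96-well plates, 19 concentrations (4.5-200 µM, n=1 per concentration). Without S9, cells were exposed for 24 h and sampled at 48 h. With Aroclor 1254-induced rat liver S9, cells were exposed for 3-4 h and sampled at 27-28 h. Read-outs are %MN and %hypodiploid nuclei relative to nucleated events, and relative survival as the nuclei-to-bead ratio versus the 1% DMSO vehicle control (x100).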

CHO-K1 [2] = test: micronucleus frequency (% of nucleated events); higher = more micronuclei (genotoxic)
CHO-K1 [3] = test: relative survival (nuclei to bead ratio vs DMSO control) (% of vehicle control); higher = more surviving cells
Method: as §1
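Throughout, for hypodiploid nuclei frequency (% of nucleated events): hypodiploid nuclei gated on a flow cytometer with 488 nm excitation after SYTOX Green staining, cultures at 37 °C, positive controls vinblastine without S9 and cyclophosphamide with S9.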
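Throughout, for micronucleus frequency (% of nucleated events): cells lysed with nuclei stained by SYTOX Green, then micronucleus-gated events counted against nucleated events by flow cytometry with 488 nm excitation.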
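Throughout, for relative survival (nuclei to bead ratio vs DMSO control): Lysed-cell nuclei stained with SYTOX Green and counted against counting beads by flow cytometry at 488 nm excitation, with vinblastine (no S9) and cyclophosphamide (plus S9) as positive controls.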

Cc1cc(=O)[nH]c(=S)[nH]1 [6-Methyl-2-thiouracil]
Details	hypodiploid nuclei frequency, CHO-K1 [1] [%]	micronucleus frequency, CHO-K1 [2] [%]	relative survival, CHO-K1 [3]
concentration: 4.5 (µM), S9 metabolic activation: with S9, exposure time: 3-4 hours	0.26	1.38	127
concentration: 4.5 (µM), S9 metabolic activation: without S9, exposure time: 24 hours	0.62	2.52	113
concentration: 5.63 (µM), S9 metabolic activation: with S9, exposure time: 3-4 hours	0.16	1.58	116
concentration: 5.63 (µM), S9 metabolic activation: without S9, exposure time: 24 hours	0.44	2.14	109
concentration: 7.04 (µM), S9 metabolic activation: with S9, exposure time: 3-4 hours	0.22	1.24	92.8
concentration: 7.04 (µM), S9 metabolic activation: without S9, exposure time: 24 hours	0.58	2.46	104
concentration: 8.8 (µM), S9 metabolic activation: with S9, exposure time: 3-4 hours	0.1	1.4	92.6
concentration: 8.8 (µM), S9 metabolic activation: without S9, exposure time: 24 hours	0.6	2.84	90.5
concentration: 11 (µM), S9 metabolic activation: with S9, exposure time: 3-4 hours	0.18	1.38	92.8
concentration: 11 (µM), S9 metabolic activation: without S9, exposure time: 24 hours	0.46	2.34	119
concentration: 13.7 (µM), S9 metabolic activation: with S9, exposure time: 3-4 hours	0.2	1.34	90.4
concentration: 13.7 (µM), S9 metabolic activation: without S9, exposure time: 24 hours	0.66	2.8	103
concentration: 17.2 (µM), S9 metabolic activation: with S9, exposure time: 3-4 hours	0.3	1.54	91.1
concentration: 17.2 (µM), S9 metabolic activation: without S9, exposure time: 24 hours	0.76	3.5	111
concentration: 21.5 (µM), S9 metabolic activation: with S9, exposure time: 3-4 hours	0.24	0.96	78.1
concentration: 21.5 (µM), S9 metabolic activation: without S9, exposure time: 24 hours	0.56	1.92	94.9
concentration: 26.8 (µM), S9 metabolic activation: with S9, exposure time: 3-4 hours	0.28	2.44	153
concentration: 26.8 (µM), S9 metabolic activation: without S9, exposure time: 24 hours	0.82	2.56	101
concentration: 33.6 (µM), S9 metabolic activation: with S9, exposure time: 3-4 hours	0.42	1.8	124
concentration: 33.6 (µM), S9 metabolic activation: without S9, exposure time: 24 hours	0.62	2.46	89.4
concentration: 41.9 (µM), S9 metabolic activation: with S9, exposure time: 3-4 hours	0.24	1.58	122
concentration: 41.9 (µM), S9 metabolic activation: without S9, exposure time: 24 hours	0.82	2.9	130
concentration: 52.4 (µM), S9 metabolic activation: with S9, exposure time: 3-4 hours	0.24	2.24	132
concentration: 52.4 (µM), S9 metabolic activation: without S9, exposure time: 24 hours	0.62	2.64	132
concentration: 65.5 (µM), S9 metabolic activation: with S9, exposure time: 3-4 hours	0.22	1.96	120
concentration: 65.5 (µM), S9 metabolic activation: without S9, exposure time: 24 hours	1.08	2.92	108
concentration: 81.9 (µM), S9 metabolic activation: with S9, exposure time: 3-4 hours	0.34	1.64	118
concentration: 81.9 (µM), S9 metabolic activation: without S9, exposure time: 24 hours	0.84	2.96	116
concentration: 102 (µM), S9 metabolic activation: with S9, exposure time: 3-4 hours	0.26	2.02	153
concentration: 102 (µM), S9 metabolic activation: without S9, exposure time: 24 hours	0.98	3.86	112
concentration: 128 (µM), S9 metabolic activation: with S9, exposure time: 3-4 hours	0.4	1.68	140
concentration: 128 (µM), S9 metabolic activation: without S9, exposure time: 24 hours	1.2	4.16	105
concentration: 160 (µM), S9 metabolic activation: with S9, exposure time: 3-4 hours	0.56	2.9	117
concentration: 160 (µM), S9 metabolic activation: without S9, exposure time: 24 hours	1.44	3.72	131
concentration: 200 (µM), S9 metabolic activation: with S9, exposure time: 3-4 hours	0.42	1.5	126
concentration: 200 (µM), S9 metabolic activation: without S9, exposure time: 24 hours	1.4	3.72	126

Cc1ccc2ncccc2c1 [6-Methylquinoline]
Details	hypodiploid nuclei frequency, CHO-K1 [1] [%]	micronucleus frequency, CHO-K1 [2] [%]	relative survival, CHO-K1 [3]
concentration: 4.5 (µM), S9 metabolic activation: with S9, exposure time: 3-4 hours	0.08	0.72	130
concentration: 4.5 (µM), S9 metabolic activation: without S9, exposure time: 24 hours	0.54	1.84	133
concentration: 5.63 (µM), S9 metabolic activation: with S9, exposure time: 3-4 hours	0.18	0.98	157
concentration: 5.63 (µM), S9 metabolic activation: without S9, exposure time: 24 hours	0.56	1.72	127
concentration: 7.04 (µM), S9 metabolic activation: with S9, exposure time: 3-4 hours	0.18	1.46	121
concentration: 7.04 (µM), S9 metabolic activation: without S9, exposure time: 24 hours	0.56	1.92	141
concentration: 8.8 (µM), S9 metabolic activation: with S9, exposure time: 3-4 hours	0.1	0.76	124
concentration: 8.8 (µM), S9 metabolic activation: without S9, exposure time: 24 hours	0.54	1.8	140
concentration: 11 (µM), S9 metabolic activation: with S9, exposure time: 3-4 hours	0.16	1.06	117
concentration: 11 (µM), S9 metabolic activation: without S9, exposure time: 24 hours	0.62	1.68	130
concentration: 13.7 (µM), S9 metabolic activation: with S9, exposure time: 3-4 hours	0.26	1	121
concentration: 13.7 (µM), S9 metabolic activation: without S9, exposure time: 24 hours	1.06	2.28	105
concentration: 17.2 (µM), S9 metabolic activation: with S9, exposure time: 3-4 hours	0.2	0.9	128
concentration: 17.2 (µM), S9 metabolic activation: without S9, exposure time: 24 hours	0.64	1.6	113
concentration: 21.5 (µM), S9 metabolic activation: with S9, exposure time: 3-4 hours	0.12	1.4	118
concentration: 21.5 (µM), S9 metabolic activation: without S9, exposure time: 24 hours	0.94	1.44	111
concentration: 26.8 (µM), S9 metabolic activation: with S9, exposure time: 3-4 hours	0.24	1.26	154
concentration: 26.8 (µM), S9 metabolic activation: without S9, exposure time: 24 hours	0.7	1.82	102
concentration: 33.6 (µM), S9 metabolic activation: with S9, exposure time: 3-4 hours	0.34	1.52	118
concentration: 33.6 (µM), S9 metabolic activation: without S9, exposure time: 24 hours	0.42	1.66	113
concentration: 41.9 (µM), S9 metabolic activation: with S9, exposure time: 3-4 hours	0.2	1.36	117
concentration: 41.9 (µM), S9 metabolic activation: without S9, exposure time: 24 hours	0.72	1.8	113
concentration: 52.4 (µM), S9 metabolic activation: with S9, exposure time: 3-4 hours	0.18	2.06	94.8
concentration: 52.4 (µM), S9 metabolic activation: without S9, exposure time: 24 hours	0.76	1.88	128
concentration: 65.5 (µM), S9 metabolic activation: with S9, exposure time: 3-4 hours	0.25	3.18	70.3
concentration: 65.5 (µM), S9 metabolic activation: without S9, exposure time: 24 hours	0.72	2.72	121
concentration: 81.9 (µM), S9 metabolic activation: with S9, exposure time: 3-4 hours	0.22	3.97	56.9
concentration: 81.9 (µM), S9 metabolic activation: without S9, exposure time: 24 hours	0.96	2.1	107
concentration: 102 (µM), S9 metabolic activation: with S9, exposure time: 3-4 hours	0.41	3.36	82.3
concentration: 102 (µM), S9 metabolic activation: without S9, exposure time: 24 hours	0.66	1.6	119
concentration: 128 (µM), S9 metabolic activation: with S9, exposure time: 3-4 hours	0.38	3.17	88.7
concentration: 128 (µM), S9 metabolic activation: without S9, exposure time: 24 hours	0.88	2.34	101
concentration: 160 (µM), S9 metabolic activation: with S9, exposure time: 3-4 hours	0.26	5.65	59.4
concentration: 160 (µM), S9 metabolic activation: without S9, exposure time: 24 hours	0.92	2.08	94.6
concentration: 200 (µM), S9 metabolic activation: with S9, exposure time: 3-4 hours	0.46	6.71	55.8
concentration: 200 (µM), S9 metabolic activation: without S9, exposure time: 24 hours	1.2	2.66	110
